About 2,200 (0.71%) of roughly 310,000 compounds showed an effect of 50% or more. Effects have a minus sign here. The list shows a part of the results.
What follows are compounds tested against human ether-à-go-go-related gene (hERG) potassium channel (human, UniProt Q12809) (assay: primary screen, population patch clamp on CHO cells stably expressing hERG).
Sequence of human ether-à-go-go-related gene (hERG) potassium channel (Q12809 whole entry, looked up): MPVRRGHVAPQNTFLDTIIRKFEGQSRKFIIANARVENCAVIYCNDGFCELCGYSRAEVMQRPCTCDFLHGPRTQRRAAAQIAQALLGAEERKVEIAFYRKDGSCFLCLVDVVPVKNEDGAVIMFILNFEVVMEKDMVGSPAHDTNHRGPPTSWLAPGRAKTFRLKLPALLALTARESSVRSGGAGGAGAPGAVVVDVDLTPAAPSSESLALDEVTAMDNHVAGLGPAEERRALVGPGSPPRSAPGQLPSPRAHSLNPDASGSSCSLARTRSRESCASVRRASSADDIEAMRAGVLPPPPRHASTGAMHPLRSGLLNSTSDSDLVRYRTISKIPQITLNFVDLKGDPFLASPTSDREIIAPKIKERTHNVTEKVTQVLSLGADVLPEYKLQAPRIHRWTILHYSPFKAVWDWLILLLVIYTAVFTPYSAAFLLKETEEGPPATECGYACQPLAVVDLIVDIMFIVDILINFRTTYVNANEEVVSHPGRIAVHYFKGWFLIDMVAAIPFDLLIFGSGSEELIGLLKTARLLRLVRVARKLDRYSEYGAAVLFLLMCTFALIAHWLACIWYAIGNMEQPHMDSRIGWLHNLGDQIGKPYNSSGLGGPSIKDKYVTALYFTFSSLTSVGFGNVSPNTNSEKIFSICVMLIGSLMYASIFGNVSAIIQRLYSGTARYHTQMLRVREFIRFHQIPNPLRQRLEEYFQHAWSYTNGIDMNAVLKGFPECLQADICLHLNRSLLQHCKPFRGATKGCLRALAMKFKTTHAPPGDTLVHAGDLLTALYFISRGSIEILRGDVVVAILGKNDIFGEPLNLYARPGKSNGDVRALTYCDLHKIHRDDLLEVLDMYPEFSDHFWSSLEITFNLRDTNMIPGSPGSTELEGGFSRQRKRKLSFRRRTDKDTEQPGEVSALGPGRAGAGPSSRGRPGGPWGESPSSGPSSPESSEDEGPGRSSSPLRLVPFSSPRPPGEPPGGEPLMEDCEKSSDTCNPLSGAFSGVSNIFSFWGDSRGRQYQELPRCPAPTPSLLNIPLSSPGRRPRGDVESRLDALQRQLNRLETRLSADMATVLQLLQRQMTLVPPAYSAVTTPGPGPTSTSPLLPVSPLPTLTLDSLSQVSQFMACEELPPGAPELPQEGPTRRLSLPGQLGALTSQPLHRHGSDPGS

Row | SMILES | hERG current change (%, negative = inhibition) at 1uM [%]
1 | Cn1cc(S(=O)(=O)NCc2ccc(Cl)cc2)c(=O)n(C)c1=O | 9.74
2 | Cc1cc(OCc2cc(C(=O)N(C)CC3CCOCC3)no2)cc(C)c1Cl | 7.55
3 | O=C(COC(=O)c1ncc(Cl)c(Cl)c1Cl)NCc1cccs1 | 13.6
4 | c1ccc(NC2=NCCN2CC2CCCC2)cc1 | 8.38
5 | Brc1ccccc1CNCCc1ccc2c(c1)OCO2 | 15.4
6 | Cc1ccc2nc(C)c3c(c2c1)N(c1ccc(F)cc1)CC3 | -94.5
7 | C[C@@]12CCC=C[C@H]1[C@H](c1ccc(F)c(/C=C/c3ccccc3)c1)N(Cc1ccccc1)C2=O | 7.38
8 | COc1ccc(-c2csc3ncn(CC(=O)N4CCOCC4)c(=O)c23)cc1 | 5.14
9 | FC(F)(F)c1cc(-c2cccs2)nc(-n2cc(Br)cn2)n1 | -2.22
10 | CCCCCC(=O)c1c(C)[nH]c(C(=O)OCC)c1C | 11.6
11 | NS(=O)(=O)c1ccc(NC(=S)NC(=O)c2ccc3c(c2)OCO3)cc1 | 20.9
12 | O=C(COc1ccccc1-c1ccccc1)NCc1cccc(Cl)c1 | 9.39
13 | CC(OC(=O)c1ccc2c(=O)n3c(nc2c1)CCCCC3)C(N)=O (stereo not drawn) | 16.1
14 | CCOC(=O)N1CCC(NC(=O)c2ccc3c(c2)N(C)CCS3)CC1 | -0.639
15 | Cc1onc(-c2c(F)cccc2Cl)c1C(=O)N1C=CC(C(F)(F)F)=NCC1 | 12.6
16 | Nc1nnc(SCC(=O)Nc2ccc(N3CCOCC3)c(Cl)c2)s1 | 4.97
17 | CCNC(=S)N1CCN(S(=O)(=O)c2ccc(C)c(C)c2)CC1 | 2.8
18 | O=C(NCc1ccc2c(c1)OCO2)C1CCC(CNS(=O)(=O)c2cccc3nsnc23)CC1 (stereo not drawn) | 8.69
19 | CC(=O)N1CCc2cc(Br)cc(S(=O)(=O)NCCN3CCCCC3C)c21 (stereo not drawn) | 3.07
20 | COc1ccc(-n2c(SCC(=O)NCc3cccs3)nc3[nH]ncc3c2=O)cc1 | -7.44
21 | Cn1c(Cn2cnc3ccccc32)nnc1SCc1ccccc1 | 0.708
22 | O=C(O)CNC(=O)/C(=C\c1ccc2c(c1)OCO2)NC(=O)c1ccc(Br)cc1 | 7.12
23 | Cc1ccc(S(=O)(=O)N2CCC(C(=O)N[C@@H](C)C(=O)NC3CCCCC3)CC2)cc1 | 8.93
24 | COc1ccc(C(=S)N2CCOCC2)cc1OC(=O)c1ccccc1Cl | 17.4
